From PubChem BioAssay AID1745853 (National Center for Advancing Translational Sciences (NCATS), 2022)
This is one part of the list. Shown are side measurements of this screen, not its main read-out; they come without a call. Peptide text beside a SMILES is read from it. * marks the point of attachment. βNA = c1ccc2cc(N*)ccc2c1; Cbz = O=C(OCc1ccccc1)*

How the values were obtained:
Assay in all cases: Primary Screen for Target Class Profiling of Small Molecule Inhibitors of Methyltransferases
[1] = target: Glycine N-methyltransferase (Homo sapiens) (UniProt Q14749); details: purified enzyme, MTase-Glo SAH luminescence; measured here: GNMT inhibition; at 40 µM; stronger effect = lower value
Procedure, shortened: (§1)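 Each enzyme was assayed with SAM and its substrate. SAH formation detected by MTase-Glo luminescence; single-point 40 uM screen[…].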

[2] = target: Guanidinoacetate N-methyltransferase (Homo sapiens) (UniProt Q14353); details: purified enzyme, MTase-Glo SAH luminescence; measured here: GAMT inhibition; at 40 µM; stronger effect = lower value
Procedure, shortened: as §1

[3] = target: Histamine N-methyltransferase (Homo sapiens) (UniProt P50135); details: purified enzyme, MTase-Glo SAH luminescence; measured here: HNMT inhibition; at 40 µM; stronger effect = lower value
Procedure, shortened: as §1

[4] = target: Nicotinamide N-methyltransferase (Homo sapiens) (UniProt P40261); details: purified enzyme, MTase-Glo SAH luminescence; measured here: NNMT inhibition; at 40 µM; stronger effect = lower value
Procedure, shortened: as §1

[5] = target: Phenylethanolamine N-methyltransferase (Homo sapiens) (UniProt P11086); details: purified enzyme, MTase-Glo SAH luminescence; measured here: PNMT inhibition; at 40 µM; stronger effect = lower value
Procedure, shortened: as §1
% is scaled to controls: 0 for no effect and ±100 for the full control effect.

SMILES	activity change, negative = inhibition [1] [%]	activity change, negative = inhibition [2] [%]	activity change, negative = inhibition [3] [%]	activity change, negative = inhibition [4] [%]	activity change, negative = inhibition [5] [%]
CC(=O)Nc1c2n(c3ccc(F)cc13)CC(C)(C(=O)NC1CCCC1)N(c1ccc(C)cc1)C2=O (stereo not given)	3.38	0	2.03	5.08	-1.76
O=C(Cc1cccn1-c1ccc(F)cc1)N1CCCCC1	-12.3	-11.4	-7.86	-14.8	4.72
O=C(CCc1nnc2n(Cc3ccc(Cl)cc3)c(=O)c3ccccc3n12)NCc1ccccn1	-17.7	2.09	-0.908	-4.48	-1.11
O=C(NCCc1ccncc1)C1CN(C(=O)C2CCCCC2)CC12CCOCC2 (stereo not given)	0.421	-0.878	1.72	-0.278	-0.502
COc1cc(C(=O)O)ccc1OC1OC(CO)C(O)C(O)C1O (stereo not given)	4.33	-0.181	8.79	-13.3	4.51
O=C1NCCCc2[nH]c(-c3cnn(-c4ccc(F)cc4)c3)nc21	-6.35	-6.38	-3.83	-12.9	-8.45
CC(C)CCn1c(=O)c2ccc(C(=O)NC(C)C)cc2n2c(=O)n(CC(=O)NCc3ccccc3)nc12	3.29	3.58	3.08	-0.108	1.06
Clc1cc(Cl)c2c(c1)N=C1CCCCCN1C2		7.88		-15.2	-14.5
Cc1cccc(C(=O)N2CC(N(C)Cc3cccnc3)C2)c1	-6.43	-9.64	-4.87	-15.2	4.52
Cc1cccc(CNC(=O)C2(C)Cn3cnc(C(=O)NCc4ccccc4F)c3C(=O)N2C2CC2)c1 (stereo not given)	-2.4	0.422	3.7	0.33	1.82
Cc1ccc(CN2CCC(C3CCN(S(C)(=O)=O)CC3)C2)o1 (stereo not given)	-2.38	-2	-2.57	-0.589	-5.59
CC1(C(=O)NCC2CCCO2)Cn2c(cc3ccccc32)C(=O)N1Cc1ccccc1Br (stereo not given)	3.4	1.31	0.567	7.32	-1.63
Cc1[nH]nc(C(=O)N[C@@H]2COCC[C@@H]2OCc2ccccc2)c1Cl	-1.46	0.575	-0.036	-1.48	-3.81
CCOC(=O)C(CCc1ccccc1)NC1CCCN2CCCC(C(=O)O)N2C1=O (stereo not given)	5.68		11.1		
Cn1ncc(N2CCCC(CC(=O)O)C2)cc1=O (stereo not given)	-5.08	-4.92	-1.94	-8.42	-28.5
CC(=O)N1CCC(C(=O)NCc2nn(Cc3ccccc3)c3ccccc23)CC1	0.947	0.842	-6.85	-5.54	1.14

SMILES	activity change, negative = inhibition [1] [%]	activity change, negative = inhibition [2] [%]	activity change, negative = inhibition [3] [%]	activity change, negative = inhibition [4] [%]	activity change, negative = inhibition [5] [%]
COc1ccc(CCO[C@@H]2O[C@H](CO[C@H]3OC[C@](O)(CO)[C@H]3O)[C@@H](OC(=O)/C=C/c3ccc(O)c(O)c3)[C@H](O[C@@H]3O[C@@H](C)[C@H](O)[C@@H](O)[C@H]3O)[C@H]2O)cc1OC	-1.46	-7.9	5.52	-19.9	-15.3
Cc1cc(Cl)ccc1NS(=O)(=O)c1ccc2[nH]c3c(c2c1)CCCC3	1.42	0	5.73	-12.8	4.54
O=C(c1cn[nH]c1)N1CCC(c2nc(CCOCC3CC3)no2)C1 (stereo not given)	-5.47	-1.26	-2.14	-2.37	-5.48
O=C(NC1CCCN(CCn2nc3n(c2=O)CCCC3)C1)c1ccccc1Cl (stereo not given)	-2.41	-4.13	2.54	-2.65	1.95
CCC(C(=O)N1CCCn2nc(C(=O)Nc3ccccc3)cc2C1)n1cccn1 (stereo not given)	-6.96	-5.04	-3.69	-6.13	-10.6
O=C(CSc1nnc2n(Cc3ccc(F)cc3)c(=O)c3ccccc3n12)Nc1cccc(Cl)c1	6.33	2.44	9.9	-2.47	5.5
CC(C)CC(NC(=O)OCc1ccccc1)C(=O)NC(CC(C)C)C(=O)NC(CCC(=O)O)C(=O)Nc1ccc2ccccc2c1 (stereo not drawn) (Cbz-Leu-Leu-Glu-βNA; configuration not given here)	-1.1	12.6	11.6	-9.17	7.91
COc1ccc(C(=O)CC(=O)O)c2c1C=CC(C)(C)O2	5.88	6.85	11.2	-4.65	5.78
Cc1cnn(CCC(=O)N2CCCn3ccnc3C2c2cnn(C)c2)c1 (stereo not given)	-0.595	-1.8	2.42	-4.53	3.38
CC(C)N1CC(C(=O)NCCc2ccc(Cl)cc2)NC1=O (stereo not given)	-5.57	-7.13	-5.11	-9.65	-4.42
Cc1ccc(C2(COC(=O)C(C)C)CO2)c(OC(=O)C(C)C)c1 (stereo not given)	1.62	-2.86	7.09	-15	-0.543
C/C=C1\[C@H](O[C@@H]2O[C@H](CO)[C@@H](O)[C@H](O)[C@H]2O)OC=C2C(=O)OCCc3ccc(O)c(c3)Oc3ccc(cc3)CCOC(=O)C[C@H]21	-5.21	-9.68	0.833	-19	-10.8
CC(C)NCC(O)COc1cccc2ccccc12 (stereo not given)	3.67	12.6	-5.69	-6.71	3.7
CC1(C(=O)NCc2ccccc2)Cn2c(cc3ccccc32)C(=O)N1Cc1ccco1 (stereo not given)	0.826	-1.83	2.98	-4.52	-3.85
O=C(CCSCc1ccccc1)N1C[C@@H](CN2CCOCC2)[C@@H](CO)C1	-0.853	-1.3	1.45	-2.8	0.84
